The RNAGym collection of RNA variant scans (doi:10.1073/pnas.2313332121)
Variants at the floor of the assay are shown more often than the library holds them.

B1: TPR 5TU (parent)
chain: GGAUCUUCUCGAUCUAACAAAAAAGACAAAUCUGCCACAAAGCUUGAGAGCAUCUUCGGAUGCAGAGGCGGCAGCCUUCGGUGGCGCGAUAGCGCCAACGUUCUCAACUAUGACACGCAAAACGCGUGCUCCGUUGAAUGGAGUUUAUCAUG

Variants of: B1
Assay: polymerase ribozyme fitness, log enrichment relative to wild type (log ratio); higher = more active; in vitro selection for triplet polymerase activity
How it was run: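 A heterodimeric triplet polymerase ribozyme had each of its subunits mutagenized by PCR into a library, which was transcribed. One round of in vitro selection, done in triplicate, annealed each library with a biotinylated primer, its partner subunit and triplets, then incubated it frozen at −7 °C before gel excision of extended constructs, streptavidin-bead capture and RT-PCR. Fitness is the logarithm of genotype enrichment relative to wild-type enrichment, based on Illumina sequencing of inputs and outputs and inverse-variance-weighted replicate averages. A base-2 logarithm is used, and genotypes were kept only with ≥10 input reads and ≥1 read per output.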
For GGACCUUCUCGAUCUAACAAAAAAGACAAAUCUGCCACAAAGCUUGAGAGUAUCUACGGAUGCAGAGACGGCAGCCUUCGGUGGCGCGAUAGCACAAACGCUCUCAACUAUGACACGCAAAACGCGUGCUCCGUUGAAUGGAGUUUAUCAUG [U4C C51U U56A G68A G94A C96A U101C], the “polymerase ribozyme fitness (log ratio)” value was ≤ -4.2.
With GGACCUUCUCGAUCUAACAAAAAAGACAAAUCUGCCACAAAGCUUGAGAGCAUGUUCAGAUGCAGAGGCGGCAGCCUUUGGUGGCUUGAUAGAGCCAACGUUCUCAACUAUGACACGCAAAACGCGUGCUCCGUACAAUGGAGUUUAUCAUG [U4C C54G G58A C79U G86U C87U C93A U135A G136C] the “polymerase ribozyme fitness (log ratio)” value was ≤ -4.2.
With GGACGUUCUCGAUCUAACAAAAAAGACAAAUCUGCAACAAAGCUUGAGAGCAUCUUCCGAUGCAGAGGCGGCAGCCUUCGGUGGGGCGAUAGCCCCCACGUUCUCAACUAUGACACGCAAAACGCUUGCUCCGUUGAAUGGAGUUUAUCAUG [U4C C5G C36A G58C C85G G94C A97C G126U] the “polymerase ribozyme fitness (log ratio)” value was ≤ -4.2.
In the case of GGACCUUCUCGAUCUAACAAAAAAGACAAAUCUGCCACAAAGCUUGAGAGCAUCUUCGGAUGCAGAGGCGGCGGCCUUCGGUGGCGCGAGAGCGCCAACGUUCUCAACUAUGACACGCAAAACGCGUGCUCCGUUGAAUGGAGUUUAUCAUG [U4C A73G U90G], the “polymerase ribozyme fitness (log ratio)” value is reported as ≤ -4.2.
In the case of GGACCUUCUCGAUCUAACAAAAAAGACAAAUCUGCCACAAAGCUUGAGAGCAUCUUCAGAUGCAGAGGCGGCAGCCUUCGGUAGUGCGAUAGCGCCAACGUUCUCAACUAUGACACGCAAAACGCGUGCUCCGUUGAAUGGAGUUUAUCAUG [U4C G58A G83A C85U], the “polymerase ribozyme fitness (log ratio)” value is reported as -1.97.
In the case of GGACCUUCUCUAUCUAACAAAAAAGACAAAUCUGCCACAAAGCUUGAGAGCACCUUCGGAUGCAGAGGCGGCAGCCUUCGGUGGCGCGAUAGCGCCAACGUUCUCAACUAUGACACGCAAAACGCGUGCUCCGUUGAAUGGAGUUUAUCAUG [U4C G11U U53C], the “polymerase ribozyme fitness (log ratio)” value is reported as -2.27.
In the case of GGACCUUCUCGAUCUAAUAAAAAAGACCAAUCUGCCACAAAGCUUGAGAGCAUCUUCGGAUGCAGAGGCGGCAGCCUUCGGUGGUGCGAUAGCGCCAACGUUCUCAACUAUGACACGCAUAACCCGUGCUCCGUUGAAUGGAGUUUAUCAUG [U4C C18U A28C C85U A120U G124C], the “polymerase ribozyme fitness (log ratio)” value is reported as ≤ -4.2.
With GGACCUUCUCUAUCUAACAAAUAAGACAAAUCUGCCACAAAGCUUGAGAACAUCUUCGGAUGCAGAGGCGGCAGCCUUCGAUGGCGCGAUAGCGCCAACGAUCUCAACUAUGACACGCAAAACGCGUGCUCCGUUGAAUGGAGUUUAUCAUG [U4C G11U A22U G50A G81A U101A] the “polymerase ribozyme fitness (log ratio)” value was ≤ -4.2.
In the case of GGACCUUCUCGAUCUAACAAAAAAGACAAAUCUGCCACAAAGCUUGAGAGCAUCUUCGGAUGCAGAGGCGGCAGCCUUCGGUGGCGAGAUAGCGCCAACGUUCUCAACUAUGACACGCUAAACGCGUGCUCCGUUGAAUGCAGUUUAUCAUG [U4C C87A A119U G141C], the “polymerase ribozyme fitness (log ratio)” value is reported as ≤ -4.2.
For GGACCUUCUCGAUCUAACAAAAAAGACAAAUCUGCCAAAAAGCUUGAGAGCAUCUUCGGAUGCAGAGGCGUCAGCCUUCGGUGGCGCGAUAGCGCCAACUUUCUCAACUAUGACACGCAAAACGCGUGCUCCGUUGAAUGGAGUUUAUCAUG [U4C C38A G71U G100U], the “polymerase ribozyme fitness (log ratio)” value was ≤ -4.2.
For GGACCUUCUCGAUCUAACAAAAAAGACAAAUCUGCCACAAAGCUUGACAGCAUCUUCGGAUGCAGAGGCGGCAGCCUUAGGCGGGGCGAUAGCGCCAACGUUCUCAACUAUGACACGCAAACCGCGUGCUCCGUUGAAUGGAGUUUAUCAGG [U4C G48C C79A U82C C85G A122C U151G], the “polymerase ribozyme fitness (log ratio)” value was ≤ -4.2.
With GGACCUUCUCGAUCUAACAAAAAAGAAAAAUCUGCCACAAAGCUGGAGAGGAUCUUCGGAUGCAGAGGCGGCAGCCUUCGGUAGCGCUAUAGCGCCAACGUUCUCAACUAGGACACGCAAAACGCGUGCUCCGUAGAAUGGAGUUUAUCAUG [U4C C27A U45G C51G G83A G88U U111G U135A] the “polymerase ribozyme fitness (log ratio)” value was ≤ -4.2.
For GGACCUUCUCGAUCUAACAAAAAAGACAAAUCUGCCACAAAGCUUGAGAGCAUCUUCGGAUGCAGAGGCGACAGCCUUCGGUGGCGCGAUAGCGCCAACGUUAUCAACUAUGACACGCAAAACGCGUGCUCCGUUGAAUGGAGUUUCUCAUG [U4C G71A C103A A147C], the “polymerase ribozyme fitness (log ratio)” value was ≤ -4.2.
For GGACCUUCUGGAUCUAACAAAAAAGAGAAAUCUGCCACAAAGCUUGAGAGCAUCUUCUGAUGCAGAGGCGGCAGUCUUCCGUGACGCGAUAGCGCCAACGUUCUCAACUAUGACACGCAAAACGAGUGCUCCGUUGAAUGGAGUUUAUCAUG [U4C C10G C27G G58U C75U G80C G84A C125A], the “polymerase ribozyme fitness (log ratio)” value was ≤ -4.2.
For GGACCUUCUCGAUCUAACAAAAAAGACAAAUCUGCCACAAAGCUUGAGAGCAUCUUCGGAUGCAGAGGCGGCAGCCUUCGGUGGUGCGAUAGCGCCAACGGUCUCAACUAUGACACGCAAAACGCGUGCUGCGUUGAAUGGAGUUUAUCAUG [U4C C85U U101G C131G], the “polymerase ribozyme fitness (log ratio)” value was ≤ -4.2.
With GGACCUUCUCGAUCUAACAAAAAAGACAAAUCUGCCACAAAGCUUGAGAGCAUCUUCGGAUGCAGAGUCGGCAGCCUUCGGUGGUGCGAUAGCGCCAACGUUCUCAACUAUGACACGCAAUACGCGUGCUCCGUUGAAUGGAGUUUAUCAUG [U4C G68U C85U A121U] the “polymerase ribozyme fitness (log ratio)” value was ≤ -4.2.
In the case of GGACCUUCUCGAUGUAACAAAAAAGACAAAUCUGCCACACAGCUUGAGAGCAUCUUCGGUUGCGGAGGCGGCAGCCUUCGGUGGCGCGAUAGUGCCUACGUUCUCAACUAUGACACGCAAAACGCGUGCUCCGUUGAAUGGAGUUUGUCAUG [U4C C14G A40C A60U A64G C93U A97U A147G], the “polymerase ribozyme fitness (log ratio)” value is reported as ≤ -4.2.
In the case of GGACCUUAUCGAUCUAACAAAAAAGACAAAUCUGCCACAAAGCUUGAGAGCAUCUACGGAUGCAGAGGCGGCAGCCUUCGGUGGGGCGAUAGGGCCAACGUUCUCAACUAUGACACGCAAAACGCGUGCUCCGUUGAAUGAAGUUUCCCAUG [U4C C8A U56A C85G C93G G141A A147C U148C], the “polymerase ribozyme fitness (log ratio)” value is reported as ≤ -4.2.
With GGACCUUUUCGAUCUAACAAAAAAGACAAAUCUGCCACAAAGCUUGAGAGCAUCUUCGGAUGCAGAGGCGGCAGUCUUCGGUGGCGCGAUAGUGCCAACGUUCUCAACUAUGACACGCAAAACGCGUGCUCCCUUGAAUGGAGUUUAUCAUG [U4C C8U C75U C93U G133C] the “polymerase ribozyme fitness (log ratio)” value was ≤ -4.2.
